In patent publication US6022851A, “Lantibiotic related to actagardine, and processes for the preparation and use thereof” (priority 1997, dated 2000) one finds MIC values data, which are given here for 1 substance.

The test system of the assay is E. faeccium M78L. The assay is classed as cell-based. Conditions: incubation time 24 h. From the text: Tables 4 to 6 show the in-vitro antibacterial activity (MIC values[μg/ml]) of the actagardine (Acta) and of the compounds according to the invention.

Substance “di-Boc-Lys(0)-actagardine [Boc--Lys--Acta]” gave an MIC values of 10 µg/mL.
